In PMC4336329 (PLoS ONE, 2015):
About 14,000 (4.5%) of roughly 310,000 compounds showed an effect of 50% or more. The effect is printed as a negative number. This is one part of the list.

Target: human ether-à-go-go-related gene (hERG) potassium channel (human, UniProt Q12809)
Assay: primary screen, population patch clamp on CHO cells stably expressing hERG
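Also: peak tail current of the secondary pulse compared with the same well before compound.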

human ether-à-go-go-related gene (hERG) potassium channel, sequence (Q12809 whole entry, looked up): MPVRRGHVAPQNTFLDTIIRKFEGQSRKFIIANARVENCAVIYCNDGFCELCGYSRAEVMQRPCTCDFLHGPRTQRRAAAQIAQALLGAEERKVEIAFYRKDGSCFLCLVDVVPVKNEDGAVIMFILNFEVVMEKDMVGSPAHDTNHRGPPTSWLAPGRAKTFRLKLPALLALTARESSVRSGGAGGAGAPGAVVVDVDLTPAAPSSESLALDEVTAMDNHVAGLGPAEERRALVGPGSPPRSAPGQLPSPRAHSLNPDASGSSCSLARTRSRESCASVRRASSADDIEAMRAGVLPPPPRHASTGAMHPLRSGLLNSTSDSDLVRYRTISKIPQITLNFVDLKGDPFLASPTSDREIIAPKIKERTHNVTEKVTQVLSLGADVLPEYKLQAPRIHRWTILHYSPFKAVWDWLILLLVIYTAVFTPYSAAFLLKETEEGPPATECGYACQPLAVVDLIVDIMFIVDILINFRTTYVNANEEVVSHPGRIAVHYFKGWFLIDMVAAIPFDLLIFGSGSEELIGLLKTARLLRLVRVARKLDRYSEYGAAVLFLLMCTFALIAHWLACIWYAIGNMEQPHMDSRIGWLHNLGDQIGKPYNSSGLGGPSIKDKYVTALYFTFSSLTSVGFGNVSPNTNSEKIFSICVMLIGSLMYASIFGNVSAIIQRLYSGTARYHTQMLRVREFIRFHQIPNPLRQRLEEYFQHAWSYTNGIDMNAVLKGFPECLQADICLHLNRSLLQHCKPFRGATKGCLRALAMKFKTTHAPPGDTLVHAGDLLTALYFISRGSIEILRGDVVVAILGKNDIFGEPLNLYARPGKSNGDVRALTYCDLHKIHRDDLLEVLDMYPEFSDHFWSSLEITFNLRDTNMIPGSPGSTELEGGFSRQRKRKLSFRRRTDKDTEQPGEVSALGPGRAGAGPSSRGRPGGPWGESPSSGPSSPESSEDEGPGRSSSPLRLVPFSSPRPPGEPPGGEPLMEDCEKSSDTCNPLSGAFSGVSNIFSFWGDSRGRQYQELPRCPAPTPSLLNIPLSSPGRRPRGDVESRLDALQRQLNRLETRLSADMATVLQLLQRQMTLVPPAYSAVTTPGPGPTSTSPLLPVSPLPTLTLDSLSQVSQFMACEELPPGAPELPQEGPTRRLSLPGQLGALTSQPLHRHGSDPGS

SMILES | hERG current change (%, negative = inhibition) at 10uM
O=[N+]([O-])c1ccc(N2CCN(C(=S)c3cccc([N+](=O)[O-])c3)CC2)cc1 | -48.5%
O=c1[nH]nc2c3ccccc3cnn12 | 1.32%
CCCCn1c(O)c(C(C)=NCCN2CCCCC2)c(=O)[nH]c1=O | -21.7%
COc1ccc(C(=O)N2CCN(C(=O)c3ccncc3)CC2)cc1 | 12.4%
COc1ccc(/C=N/NC(=O)C(=O)NCc2cccnc2)cc1OC | -7.01%
O=S(=O)(c1cc(Cl)ccc1Cl)N1CCN(c2ccccn2)CC1 | -20.6%
Cc1ccc(CC(=O)Nc2ccc(S(=O)(=O)N3CCOCC3)cc2)cc1 | 5.32%
C/C(CC(=O)Nc1ccccn1)=N\NC(=O)c1ccc(C)cc1 | -2.2%
C=CCN(C(=O)CNC(=O)c1ccco1)C(C(=O)NC1CCCCC1)c1ccc(OC)cc1 (stereo not shown) | -4%
COc1cc(OC)c(C2C(C#N)=C(N)OC3=C2C(=O)CC(C)(C)C3)cc1OC (stereo not shown) | -1.73%
Cc1cccc(C(=O)Nc2ccc(N3CCN(C(=O)c4ccco4)CC3)cc2)c1 | 5.03%
COc1ccc(NC(=S)c2ccc3ccccc3n2)cc1 | 29%
Cc1nc2c(-c3ccc(F)cc3)cnn2c(N)c1-c1ccccc1 | 15%
O=C(N/N=C1\CC(c2ccccc2)Oc2ccccc21)c1ccccn1 (stereo not shown) | 11.7%
CCn1c(SCC(=O)N/N=C/c2c[nH]c3ccccc23)nnc1-c1ccc(Cl)cc1 | -18.4%
CN(C)C(=O)Oc1ccc(Br)c2ccccc12 | -6%
CNC(=O)c1cccn(Cc2cccc(C(F)(F)F)c2)c1=O | 9.39%
O=C(/C=C/c1ccc(F)cc1)Nc1ccc(S(=O)(=O)Nc2ncccn2)cc1 | 8.21%
N#C/C(=C/c1cn(-c2ccccc2)nc1-c1cccc(S(=O)(=O)N2CCCC2)c1)C(=O)NCc1ccco1 | 3.17%
CNc1ccccc(-c2ccc3ccccc3n2)c1=O | -15.5%
CC1(C)C(=O)Nc2ccccc2N1C(=O)CN1C(=O)C(=O)N(C2CCCC2)C1=O | 5.47%
O=C(N/N=C/c1cccnc1)c1ccccc1 | 17.3%
COc1ccc(C(=O)COC(=O)c2ccc(OC)c(OC)c2)cc1OC | 4.31%
COc1ccc(CNC(=O)c2cc(-c3ccncc3)nc3c(C)cc(C)cc23)cc1OC | 14.6%
O=C(N/N=C/c1cccn1-c1ccc([N+](=O)[O-])cc1)c1cccnc1 | -22.5%
COc1ccc(/C=C/C(=O)OCC(=O)Nc2ccc(N3CCOCC3)cc2)cc1OC | 3.9%
CCOC(=O)Cn1nc(Cc2ccccc2)c2ccccc2c1=O | 4.1%
O=C(Oc1ccc(N(C(=O)c2ccncc2)S(=O)(=O)c2ccc(F)cc2)cc1)c1ccncc1 | -0.259%

SMILES | hERG current change (%, negative = inhibition) at 10uM
S=C(NCc1ccc2[nH]c3c(c2c1)CCCC3)Nc1ccccc1 | 2.38%
Cc1ccc(-n2c(C)cc(C(=O)COc3c(CO)cc(F)cc3CO)c2C)cc1C | -16.7%
Cl.OC(COc1ccc(Cl)cc1)CN1CCCCC1 (stereo not shown) | -61.9%
Cc1ccccc1-n1c(C)cc(/C=C2/C(=N)N3C(c4ccccc4)=CSC3=NC2=O)c1C | 8.13%
COc1cc2cc(C(=O)N3CCN(Cc4ccc5c(c4)OCO5)CC3)[nH]c2cc1OC | 12.4%
CC(NC(=O)Nc1ccc(O)cc1)(C(F)(F)F)C(F)(F)F | 16.1%
O=C(CNC(=O)c1ccccc1)OCC(=O)c1ccc(Cl)s1 | 0.566%
COc1cc(CN2CCC(C(=O)NC3CCCC3)CC2)cc(Br)c1O.O=C(O)C(=O)O | -27.5%
COc1ccc(N2CCN(C(=O)c3cc(N4C(=O)C5C6CCC(C6)C5C4=O)ccc3Cl)CC2)cc1 (stereo not shown) | -8.93%
O=C(CSc1nc2ccccc2c(=O)n1-c1ccc(F)cc1)Nc1ccc2c(c1)CCC2 | -12%
COc1ccc(-c2nnc(SC)n2C)cc1 | 2.88%
Cc1ccc(S(=O)(=O)N2CCN(c3nccnc3C#N)CC2)cc1 | -54.8%
CCn1ncc(C(=O)Nc2ccccc2C)c1C | 9.29%
CCOc1ccc(C(CC(=O)O)NC(=O)C(CC)c2ccccc2)cc1 (stereo not shown) | 8.29%
COc1cc(-c2nnc(SCC(=O)c3ccccc3)o2)cc(OC)c1OC | -7.2%
Cc1ccccc1NC(=O)c1ccccn1 | 5.81%
COc1cccc2c1cc1c(=O)n(CC(=O)NCCCc3ccccc3)nc(C)n12 | 4.33%
Cc1ccccc1C[n+]1cccc2ccccc21.[Br-] | -4.13%
Cc1ccc(S(=O)(=O)NCCCCCC(=O)Nc2ccccc2C)cc1 | -11.4%
O=C(N/N=C/c1sc(=O)n(Cc2ccc(Br)cc2)c1Cl)c1ccco1 | 13.4%
COc1ccccc1CNC(=O)CCN1C(=O)COc2ccccc21 | 1.89%
O=C(C1CCC(=O)N(C2CCCC2)C1)N1CCN(Cc2cccc(Cl)c2)CC1 (stereo not shown) | -2.16%
Cc1ccc(Cn2nc(C)c(NC(=O)CCCn3nc(C)c([N+](=O)[O-])c3C)c2C)cc1 | -10.9%
N/C(=N\c1nc2c(c(=O)[nH]1)CCC2)Nc1cccc2ccccc12 | -6.95%
Cc1ccc(N(CC(=O)NCCc2ccccc2)S(=O)(=O)c2c(C)noc2C)cc1 | -32%
Cc1ccc(S(=O)(=O)N(C)C)cc1NC(=O)COc1cccc(-n2cnnn2)c1 | -28.3%
O=C(CN1C(=O)COc2ccc(S(=O)(=O)N3CCCCCC3)cc21)NCc1ccc(F)cc1 | -8.68%
